From PubChem BioAssay AID588342 (National Center for Advancing Translational Sciences (NCATS), 2011)
Hit rate of the full screen: of about 360,000 compounds, about 25,000 (6.9%) were called active. Inconclusive means that the source gave no clear call. Such entries were picked first, then a sample of the others. Calls come from the whole dose curve; as a rule, active = well fitted inhibition curve with a large enough effect; inconclusive = small, poorly fitted or top-dose-only effect; inactive = flat fitted curve, though single readings scatter. A potency beside an inconclusive call is a rough fit, not a confirmed value.

Biological target: Luciferin 4-monooxygenase (Photinus pyralis) (UniProt P08659)
UniProt P08659, sequence (P08659 whole entry, looked up): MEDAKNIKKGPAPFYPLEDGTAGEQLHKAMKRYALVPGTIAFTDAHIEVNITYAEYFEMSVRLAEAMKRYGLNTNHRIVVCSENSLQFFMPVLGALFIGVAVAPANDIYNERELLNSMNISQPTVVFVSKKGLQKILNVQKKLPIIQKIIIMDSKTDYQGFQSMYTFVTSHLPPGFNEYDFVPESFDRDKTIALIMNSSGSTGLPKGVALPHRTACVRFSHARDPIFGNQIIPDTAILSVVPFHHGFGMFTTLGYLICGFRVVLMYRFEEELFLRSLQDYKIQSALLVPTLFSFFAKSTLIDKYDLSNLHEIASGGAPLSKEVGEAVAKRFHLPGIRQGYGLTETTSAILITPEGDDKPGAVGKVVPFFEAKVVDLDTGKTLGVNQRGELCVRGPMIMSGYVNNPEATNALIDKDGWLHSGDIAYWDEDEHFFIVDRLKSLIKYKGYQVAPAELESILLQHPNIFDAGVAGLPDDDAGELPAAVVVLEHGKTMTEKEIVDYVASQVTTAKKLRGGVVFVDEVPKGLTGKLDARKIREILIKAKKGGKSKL
Assay: qHTS profiling assay for firefly luciferase inhibitor/activator using purifed enzyme and Km concentrations of substrates (counterscreen for miR-21 project); note: nearly all actives have a fitted effect of over 55% in size;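 for activity change, negative = inhibition: plate controls were vehicle for no effect and reference inhibitor for full effect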
Details: purified FLuc, luminescence inhibition; series mostly up to 57.5 µM; activity change, negative = inhibition: at the top concentration
How it was run: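 Purified P. pyralis luciferase, 10 nM final, with Km-level 10 uM D-luciferin and 10 uM ATP in 50 mM Tris acetate pH 7.5, 10 mM Mg acetate, 0.01% Tween-20, 0.05% BSA; 6-point qHTS titration about 60 µM downward; luminescence read.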
Potency is the fitted concentration of half-maximal effect; tags give direction and shape of the fitted curve.

With `Cc1cccc(NC(=O)COc2ccc3oc4c(c3c2)CCCC4)n1` as the compound, how does the Potency read?
The Potency was inconclusive: 23.9 µM [inhibitor, partial curve].

Which Potency does the source give for `O=C(NCCc1ccc(Cl)cc1)c1ccc2nc[nH]c2c1` here?
The Potency was inconclusive: 23.9 µM [inhibitor, partial curve, poor fit].

With `COc1c(O)c(O)c2oc(-c3ccccc3)cc(=O)c2c1OC` as the compound, how does the Potency read?
Its Potency is inconclusive: 21.3 µM [inhibitor, single point].

With `COc1ccccc1CN1CC(C(=O)N2CCC(C(=O)c3ccccc3)CC2)CCC1=O` (centres undefined) as the compound, how does the Potency read?
Its Potency is inconclusive: 30.1 µM [inhibitor, single point].

For `CN1/C(=C\C(=O)CSc2nnc(NCc3ccccc3)s2)C(C)(C)c2ccccc21`, which Potency is on record?
The Potency was inconclusive: 37.9 µM [inhibitor, partial curve, poor fit].

`Cc1nc2sc(-c3ccccc3)cc2c(=O)n1/N=C/N(C)C` was tested. Which Potency did it give?
The Potency was active: 19 µM.

How did the Potency turn out when `O=C(Nc1ccc(F)cc1F)c1cc(-c2ccco2)nc2ccccc12` was run?
The Potency was inconclusive: 16.9 µM [inhibitor, partial curve, poor fit].

`CC(=O)Nc1nc(C)c(-c2csc(Nc3ccc(O)cc3)n2)s1` was tested. Which Potency did it give?
Its Potency is inconclusive: 26.9 µM [inhibitor, single point].

How did the Potency turn out when `Cc1[nH]cnc1CSCc1ccc(F)cc1` was run?
The Potency was inconclusive: 30.1 µM [inhibitor, partial curve, poor fit].

`CCOCCCN(C(=O)c1snc(C(N)=O)c1N)C(C(=O)NCCC(C)C)c1ccc(Cl)cc1` (centres undefined) was tested. Which “activity change, negative = inhibition” value did it give?
The value was inactive: 0.532%.

For `O=c1[nH][nH]c(-c2ccccc2)c1C=Nc1ccccc1Cl`, which Potency is on record?
The Potency was inconclusive: 23.9 µM [inhibitor, single point].

For `O=C(COC(=O)CCN1C(=O)/C(=C\C=C\c2ccccc2)SC1=S)Nc1cc(F)ccc1F`, which Potency is on record?
The Potency was active: 13.5 µM.

With `Cc1ccc(Cn2nnc(C(=O)Nc3cccc(C)c3C)c2N)cc1` as the compound, how does the “activity change, negative = inhibition” value read?
The value was inactive: 2.02%.

With `COc1ccccc1NC(=O)COC(=O)c1ccc(N2CCCC2=O)cc1` as the compound, how does the Potency read?
Its Potency is inconclusive: 22.4 µM [inhibitor, single point].

For `N#Cc1c(N2C(=O)c3ccc(C(=O)O)cc3C2=O)sc2c1CCCC2`, which Potency is on record?
The Potency was inconclusive: 26.9 µM [inhibitor, single point].

Which “activity change, negative = inhibition” value does the source give for `O=C1N/C(=N\N=C\c2cccs2)SC1Cc1cccc(Cl)c1` (centres undefined) here?
The value was inactive: -4.23%.

How did the Potency turn out when `CCOC(=O)C(=O)Nc1ccc2c(c1)OCO2` was run?
The Potency was inconclusive: 23.9 µM [inhibitor, partial curve, poor fit].

How did the “activity change, negative = inhibition” value turn out when `CC(=O)C[C@H](O)CC(=O)[C@H]1OC(=O)[C@H](C)C/C=C\Cc2ccccc21` was run?
The value was inactive: 7.29%.

With `COc1ccc(-c2csc(NNC3=NCCCCC3)n2)cc1` as the compound, how does the Potency read?
The Potency was inconclusive: 21.3 µM [inhibitor, partial curve, poor fit].

With `O=C(CSCc1ccccc1Cl)N1CCN(c2ccccn2)CC1` as the compound, how does the Potency read?
Its Potency is inconclusive: 26.9 µM [inhibitor, single point].

For `Cc1nonc1C(=O)N/N=C/c1ccc(O)c(O)c1`, which Potency is on record?
Its Potency is inconclusive: 23.9 µM [inhibitor, single point].

For `Cc1cccc(-c2nc(CN3CCCC(C(=O)NCc4ccc(Cl)cc4)C3)c(C)o2)c1` (centres undefined), which Potency is on record?
The Potency was inconclusive: 37.9 µM [inhibitor, partial curve, poor fit].

`CCNC(=O)c1ccc(CSc2nc3cccnc3n2Cc2ccc(OC)cc2)cc1` was tested. Which Potency did it give?
Its Potency is active: 21.3 µM.

How did the “activity change, negative = inhibition” value turn out when `O=C(Nc1ccc(-c2csnn2)cc1)C(Cl)(Cl)Cl` was run?
The value was inactive: -19.1%.

How did the “activity change, negative = inhibition” value turn out when `CC(C)CNC(=S)NNC(=O)c1csc2c1CCC(C)C2` (centres undefined) was run?
Its value is inactive: 1.08%.

Which Potency does the source give for `COc1ccc(OCc2cc(C(=O)N(C)Cc3nnc(C)o3)no2)c(Cl)c1` here?
The Potency was active: 8.49 µM.

Which Potency does the source give for `O=[N+]([O-])c1cccc(CSc2nc3ccccc3[nH]2)c1` here?
Its Potency is inconclusive: 23.9 µM [inhibitor, single point].

For `C/C(=N/Nc1ncc(Br)cn1)c1ccc(Br)cc1`, which “activity change, negative = inhibition” value is on record?
The value was inactive: -26.8%.

With `O=C(COC(=O)c1ccccc1C(=O)OCC(=O)NCCc1c[nH]c2ccccc12)NCCc1c[nH]c2ccccc12` as the compound, how does the Potency read?
The Potency was inconclusive: 30.1 µM [inhibitor, partial curve, poor fit].

How did the Potency turn out when `Cc1cccc(N2C(=O)c3ccc(C(=O)Nc4ccccn4)cc3C2=O)c1` was run?
The Potency was inconclusive: 16.9 µM [inhibitor, partial curve, poor fit].

Which “activity change, negative = inhibition” value does the source give for `CCc1nc(CN2CCN(c3cc(C(F)(F)F)ccn3)CC2)c(C)[nH]1` here?
The value was inactive: -0.232%.

How did the Potency turn out when `O=C(COC(=O)c1cccs1)Nc1ccccc1Cl` was run?
The Potency was inconclusive: 30.1 µM [inhibitor, single point].

How did the “activity change, negative = inhibition” value turn out when `O=C(C1CCN(c2nnc(N3CCCC3=O)s2)CC1)N1CCN(c2cccc(C(F)(F)F)c2)CC1` was run?
The value was inactive: -1.6%.

Which Potency does the source give for `CCOC(=O)c1sc(N(Cc2ccccc2)C(=O)CSc2nnc(C3CC3)n2N)nc1C` here?
The Potency was inconclusive: 21.3 µM [inhibitor, partial curve, poor fit].

For `Cc1ccc(C)c(N2CCN(C(=O)c3ccc(Nc4nc5ccccc5n5nnnc45)cc3)CC2)c1`, which “activity change, negative = inhibition” value is on record?
Its value is inactive: -0.335%.

For `Cc1cc(C(=O)CSc2nc3ccccc3[nH]2)c(C)n1C`, which Potency is on record?
The Potency was active: 3.38 µM.

With `O=C(/C=C/c1cn(CC(O)CN2CCCCCC2)c2ccccc12)c1cccs1` (centres undefined) as the compound, how does the Potency read?
Its Potency is inconclusive: 21.3 µM [inhibitor, partial curve, poor fit].

`COCCCNC(=O)CCC(=O)Nc1ccc2nc(N3CCOCC3)cc(C)c2c1` was tested. Which Potency did it give?
The Potency was inconclusive: 26.9 µM [inhibitor, single point].

With `Cc1ccc(CSc2nc3nc(C)cc(C)c3c(=O)[nH]2)cc1` as the compound, how does the Potency read?
The Potency was inconclusive: 10.7 µM [inhibitor, partial curve].

For `COc1ccc(NC(=O)/C=C/c2c(Cl)nc3ccccn23)cc1`, which Potency is on record?
Its Potency is inconclusive: 30.1 µM [inhibitor, single point].

Which Potency does the source give for `Cc1nn(C(C)C(=O)O)c(=O)c2c1sc1ccccc12` (centres undefined) here?
The Potency was inconclusive: 37.9 µM [inhibitor, partial curve, poor fit].

For `Cc1ccccc1NC(=O)Cn1c(=O)n(Cc2ccc3c(c2)OCO3)c(=O)c2ccc(C(=O)NC3CCCCC3)cc21`, which “activity change, negative = inhibition” value is on record?
Its value is inactive: 3.57%.

For `CC(=O)c1ccccc1OC(=O)COc1ccc(Cl)cc1C`, which Potency is on record?
Its Potency is active: 16.9 µM.

Which “activity change, negative = inhibition” value does the source give for `CC(=O)c1cccc(NC(=O)c2oc(=O)c3ccccc3c2-c2ccccc2)c1` here?
The value was inactive: -9.23%.

With `N#Cc1ccccc1Sc1ccccc1C(=O)OCc1nnc(-c2ccccc2)o1` as the compound, how does the Potency read?
The Potency was inconclusive: 26.9 µM [inhibitor, partial curve, poor fit].

Which Potency does the source give for `O=c1[nH]cnc2sc3c(c12)CCCCC3` here?
Its Potency is inconclusive: 37.9 µM [inhibitor, partial curve, poor fit].

For `CCOC(=O)c1oc2ccc3c(c2c1C)C(=O)CC1(CCN(C(=O)OCC)CC1)O3`, which “activity change, negative = inhibition” value is on record?
The value was inactive: 0.629%.

Which Potency does the source give for `O=C(CN1CCC(n2nnc3cc(C(F)(F)F)ccc32)CC1)Nc1ccc2c(c1)OCCO2` here?
Its Potency is inconclusive: 16.9 µM [inhibitor, partial curve, poor fit].

`CC1CCN(C(=O)CN2c3ccc(C(C)C)cc3-c3ccccc3S2(=O)=O)CC1` was tested. Which Potency did it give?
The Potency was inconclusive: 10.7 µM [inhibitor, partial curve, poor fit].

How did the “activity change, negative = inhibition” value turn out when `COc1ccc(OCCSCc2nnc(NC(=O)Nc3ccc(Cl)cc3)s2)cc1` was run?
The value was inactive: -5.89%.

`C/C(=N/NC(=O)CCCOc1ccc(Cl)cc1Cl)c1ccc(C)o1` was tested. Which Potency did it give?
The Potency was inconclusive: 15.1 µM [inhibitor, partial curve, poor fit].

For `O=c1c2c(nc3cc(-c4ccccc4)[nH]n13)CCS2`, which Potency is on record?
Its Potency is active: 9.53 µM.

With `CCN(CC)S(=O)(=O)c1cccc(C(=O)Nc2sc3c(c2C(N)=O)CCCC3)c1` as the compound, how does the Potency read?
Its Potency is inconclusive: 10.7 µM [inhibitor, partial curve].

How did the Potency turn out when `CCCOc1ccc(C(=O)CCC(=O)OCC(=O)Nc2cccc(S(N)(=O)=O)c2)cc1` was run?
Its Potency is active: 10.7 µM.

For `COc1ccc(N=C(NN)c2ccc3ccccc3n2)cc1`, which Potency is on record?
Its Potency is active: 6.75 µM.

For `Cc1cc(C)cc(OCC(=O)O/N=C(\N)c2ccccn2)c1`, which Potency is on record?
Its Potency is inconclusive: 30.1 µM [inhibitor, partial curve, poor fit].

How did the Potency turn out when `O=C1NN(c2ccc(Cl)c(Cl)c2)C(=O)/C1=C/c1cccc(OC(=O)c2cccs2)c1` was run?
Its Potency is inconclusive: 37.9 µM [inhibitor, single point].

With `COc1ccc(Cl)cc1NC(=O)CN(C)C(=O)CCCNC(=O)c1ccc(Cl)cc1` as the compound, how does the Potency read?
Its Potency is active: 13.5 µM.

How did the Potency turn out when `Cc1cc(C)n(CCC(=O)Nc2ccc3c(c2)OCCO3)n1` was run?
Its Potency is inconclusive: 26.9 µM [inhibitor, partial curve, poor fit].

`Cc1ccc([C@@H]2[C@@H]3C(=O)N(C)C(=O)[C@@H]3[C@@H]3C(=O)Nc4ccccc4C(=O)N23)cc1` was tested. Which “activity change, negative = inhibition” value did it give?
Its value is inactive: -6.29%.

For `Cc1ccc(NC(=O)COC(=O)CCC(=O)c2ccc(C(C)(C)C)cc2)c([N+](=O)[O-])c1`, which Potency is on record?
Its Potency is inconclusive: 26.9 µM [inhibitor, single point].

`O=c1cc(/C=C/c2ccccc2)oc2ccccc12` was tested. Which Potency did it give?
Its Potency is active: 6.01 µM.

With `Cc1ccc(NC(=O)CC2COc3ccccc3O2)cc1` (centres undefined) as the compound, how does the Potency read?
Its Potency is inconclusive: 30.1 µM [inhibitor, single point].

With `O=C(NCC1CCCO1)c1csc2c1CCCC2` (centres undefined) as the compound, how does the Potency read?
The Potency was inconclusive: 21.3 µM [inhibitor, partial curve, poor fit].

For `O=C(CN1C(=O)NC2(CCCCC2)C1=O)Nc1ccc(Cl)c(S(=O)(=O)N2CCOCC2)c1`, which “activity change, negative = inhibition” value is on record?
The value was inactive: 3.74%.

How did the Potency turn out when `CSc1ncc(C(=O)Nc2ccc(Br)cn2)c(C)n1` was run?
Its Potency is inconclusive: 26.9 µM [inhibitor, partial curve, poor fit].

How did the “activity change, negative = inhibition” value turn out when `O=C1C2C3C=CC(CC3)C2C(=O)N1c1cccc(Br)c1` (centres undefined) was run?
Its value is inactive: -9.5%.

For `Nc1nonc1-n1nnc(C(=O)N/N=C/c2ccccc2F)c1-c1cccs1`, which Potency is on record?
The Potency was inconclusive: 26.9 µM [inhibitor, single point].

For `CC(=O)Nc1ccc(/C=C/C(=O)c2ccc3c(c2)OCCO3)cc1`, which Potency is on record?
Its Potency is active: 6.75 µM.
